Experimental data reported in ChEMBL document CHEMBL4888484, “Replenishing the malaria drug discovery pipeline: Screening and hit evaluation of the MMV Hit Generation Library 1 (HGL1) against asexual blood stage Plasmodium falciparum ,using a nano luciferase reporter read-out” (2022).
About 540 (0.36%) of roughly 150,000 compounds showed an effect of 50% or more. The list shows a part of the results.

The compounds below were run on Plasmodium falciparum (assay: Primary screen in NF54 nanoGlo assay, in single point, at 2uM, 72h; a lower Z score goes with more inhibition). Details: timepoint 72 hour.
Assay type: functional, Erythrocyte
With `O=C(C[C@H]1CCN(S(=O)(=O)c2ccc3c(c2)OCCO3)C1)NCc1ccccc1` the “% Inhibition” value was -7% and the Z score was 1.37.
For `O=S(=O)(C[C@H]1CCCCO1)Nc1cc(F)c(F)cc1F`, the “% Inhibition” value was -7% and the Z score was 0.77.
In the case of `N#Cc1cccc(CN2CCC(CNC(=O)c3cnccn3)CC2)c1`, the “% Inhibition” value is reported as -6% and the Z score is reported as 1.23.
With `O=C(C1CCN(S(=O)(=O)c2ccc3c(c2)CCC3)CC1)N1CCC1` the “% Inhibition” value was -13% and the Z score was 2.45.
For `Cc1c(C(=O)OC(C)C)nnn1CC1CCCC1`, the “% Inhibition” value was -12% and the Z score was 1.97.
In the case of `COc1cccc(C(=O)N2CCN(C(=O)c3cc4ccsc4n3Cc3ccccc3C)C[C@@H]2C)c1`, the “% Inhibition” value is reported as 12% and the Z score is reported as -1.75.
With `C[C@]1(NC(=O)c2nc3ncc(Br)cn3n2)CCOC1` the “% Inhibition” value was 3% and the Z score was -0.31.
For `O=C(O)c1csc(-n2nc(C(F)F)cc2-c2ccco2)n1`, the “% Inhibition” value was -37% and the Z score was 4.34.
For `CCN(CC)[C@H](CNC(=O)c1cccc(S(=O)(=O)N2CCCCC2)c1)Cc1ccccc1`, the “% Inhibition” value was 12% and the Z score was -1.58.
For `CO[C@H]1CN(C2CCN(C(=O)c3n[nH]c4ccccc34)CC2)C12CCOCC2`, the “% Inhibition” value was -11% and the Z score was 1.92.
`COC(=O)[C@H](NC(=O)Cc1ccncc1)c1cccc(C)c1` was tested, and the “% Inhibition” value was 1% and the Z score was -0.15.
In the case of `Cc1nc(-c2ccco2)ccc1C(=O)N[C@@H](C)c1nnnn1C`, the “% Inhibition” value is reported as -12% and the Z score is reported as 1.8.
In the case of `Cc1ccc(CN2c3ccc(C)cc3OC[C@@H]2CC(=O)Nc2nccs2)cc1`, the “% Inhibition” value is reported as -2% and the Z score is reported as 0.34.
With `COc1ccccc1NS(=O)(=O)c1ccc(Cl)c(NC(=O)[C@H](Cc2ccccc2)N2C(=O)c3ccccc3C2=O)c1` the “% Inhibition” value was 16% and the Z score was -2.5.
With `CNC(=O)[C@H]1CN(C)C[C@@H]1NS(=O)(=O)c1ccccc1Cl` the “% Inhibition” value was -7% and the Z score was 0.92.
In the case of `CCN1C(=O)CN(C(=O)c2ccccn2)CC12CCOCC2`, the “% Inhibition” value is reported as -4% and the Z score is reported as 0.56.
In the case of `CC(C)C(=O)c1ccc(C(C)C(=O)NC2(CCO)CCOC2)cc1` (stereo unspecified), the “% Inhibition” value is reported as -8% and the Z score is reported as 0.9.
For `O=C1CC2(CCCCC2)Oc2cc(OCC(=O)N3CCOCC3)ccc21`, the “% Inhibition” value was -3% and the Z score was 0.3.
In the case of `O=C(NC[C@H]1COCCO1)c1ccc(COc2ccc3ccccc3c2)o1`, the “% Inhibition” value is reported as -8% and the Z score is reported as 0.8.
With `Cc1nn(CCC#N)cc1Br` the “% Inhibition” value was 8% and the Z score was -0.95.
`O=C(N1CCCC1)N1CC[C@H]2[C@H](CCC(=O)N2CCc2ccccc2)C1` was tested, and the “% Inhibition” value was -1% and the Z score was 0.14.
`Cc1cc(C)c2nc(N3CCC(C(=O)NCCCN4CCOCC4)CC3)sc2c1` was tested, and the “% Inhibition” value was -2% and the Z score was 0.25.
For `CC[C@](C)(NCc1ncc(-c2cccs2)o1)c1nccs1`, the “% Inhibition” value was -10% and the Z score was 1.08.
In the case of `Cc1ccc(-c2cc3c(=O)n(Cc4noc(CN5CCCC5)n4)ccn3n2)cc1`, the “% Inhibition” value is reported as -7% and the Z score is reported as 0.88.
In the case of `O=c1c(C(F)(F)F)cccn1Cc1csc(-c2ccccc2)n1`, the “% Inhibition” value is reported as -3% and the Z score is reported as 0.44.
`O=C(c1ccccc1)N1CC[C@H](c2nnc(-c3ccncc3)o2)C1` was tested, and the “% Inhibition” value was -1% and the Z score was 0.22.
With `Cc1csc(CNC(=O)[C@]2(c3ccccc3)CCC(=O)NC2)c1` the “% Inhibition” value was 2% and the Z score was -0.33.
For `Cc1ccc2nc3c(n2c1)[C@@H](c1cc2cccc(C)c2nc1O)CC(=O)NC3`, the “% Inhibition” value was 4% and the Z score was -0.84.
`CC(C)[C@@H]1CN(C(=O)CCC(=O)N2CCC(O)CC2)c2ccccc21` was tested, and the “% Inhibition” value was -1% and the Z score was 0.11.
`O=C(NCc1ccn(C2CCCC2)n1)c1cc[nH]n1` was tested, and the “% Inhibition” value was 6% and the Z score was -0.72.
`CCc1cn[nH]c1[C@H]1CCCN(c2nc(C(F)(F)F)nc(C)c2C)C1` was tested, and the “% Inhibition” value was -4% and the Z score was 0.5.
With `CC1(C)NC(=O)N(Cc2ccnc(OC3CCOCC3)c2)C1=O` the “% Inhibition” value was 28% and the Z score was -3.79.
In the case of `Cc1c(Cl)c(C(=O)N2CCNC(=O)C[C@H]2c2ccccc2)nn1C`, the “% Inhibition” value is reported as -3% and the Z score is reported as 0.36.
With `COc1ccc(-c2cc(C(=O)NCc3cccc(OC)c3)sn2)cc1` the “% Inhibition” value was -5% and the Z score was 0.61.
In the case of `CN(C(=O)NC1CCCCC1)C1(CCO)CCOCC1`, the “% Inhibition” value is reported as 6% and the Z score is reported as -0.76.
`Nc1ccc(-c2nnc(Cn3cncn3)[nH]2)cc1` was tested, and the “% Inhibition” value was -1% and the Z score was 0.09.
`COc1ccc(-c2cccc3c2CCN(C(=O)c2ccncc2)[C@@H]3C)cc1` was tested, and the “% Inhibition” value was -7% and the Z score was 0.67.
For `O=C(Nc1ccc(-c2ncon2)cc1)c1cnn(-c2ncccc2Cl)c1C(F)(F)F`, the “% Inhibition” value was -12% and the Z score was 1.27.
In the case of `CCOC(=O)c1cnn(CN2C[C@H](C)OC(C)(C)C2)c1C(F)F`, the “% Inhibition” value is reported as -12% and the Z score is reported as 1.58.
With `CC1CC(C)CN(CCNS(=O)(=O)CCC2CCCO2)C1` (stereo unspecified) the “% Inhibition” value was -7% and the Z score was 0.76.
With `Cc1ccc(OC2CCN(C(=O)c3cn(C)nc3[C@H]3CCOC3)CC2)cc1` the “% Inhibition” value was 14% and the Z score was -1.9.
`CCN(Cc1cnn(CC)c1)C(=O)c1cnc(-c2cccnc2)nc1O` was tested, and the “% Inhibition” value was -4% and the Z score was 0.76.
In the case of `CC1CCCCC1OCCNCc1c[nH]nc1-c1cccnc1` (stereo unspecified), the “% Inhibition” value is reported as -9% and the Z score is reported as 1.33.
`COc1cc(C(=O)Nc2ccc3c(c2)OCO3)on1` was tested, and the “% Inhibition” value was 11% and the Z score was -1.65.
In the case of `Cc1c[nH]nc1NC(=O)c1ccc2ccccc2n1`, the “% Inhibition” value is reported as 13% and the Z score is reported as -1.77.
In the case of `C=C(C)CN(Cc1ccccc1)C(=O)[C@@H]1C[C@H](C)[C@@H](C(=O)O)O1`, the “% Inhibition” value is reported as -6% and the Z score is reported as 0.7.
For `O=C(Nc1cccc(-c2ccco2)c1)C1CCN(C2Cc3ccccc3C2)CC1`, the “% Inhibition” value was -17% and the Z score was 1.58.
In the case of `COC[C@H](C)n1cc(C(=O)N2CCC3(CN(C)C3)C2)c(C)n1`, the “% Inhibition” value is reported as -4% and the Z score is reported as 0.79.
`CCc1c(C(=O)N[C@H]2Cc3cnccc3NC2=O)ccn1C` was tested, and the “% Inhibition” value was -11% and the Z score was 2.13.
In the case of `Cc1cccc(NC(=O)CC(=O)N2CCN(CCOCCO)CC2)c1C`, the “% Inhibition” value is reported as 0% and the Z score is reported as 0.01.
`Cc1cccc(Cn2nc(Cc3cccnc3)nc2[C@@H]2CCC(=O)N2)c1` was tested, and the “% Inhibition” value was -10% and the Z score was 1.49.
`CCC(=O)N1CCC(C(=O)N2CCCCCC2)CC1` was tested, and the “% Inhibition” value was -5% and the Z score was 0.66.
In the case of `C#CCCC1(CCC(=O)N2CC(N3CCOCC3)CC2C)N=N1` (stereo unspecified), the “% Inhibition” value is reported as -6% and the Z score is reported as 0.65.
In the case of `Cc1cc(C(=O)NCc2nnc3ccccn23)c(C)n1-c1ccc2c(c1)OCCO2`, the “% Inhibition” value is reported as -14% and the Z score is reported as 2.77.
With `CC[C@](C)(NC(=O)c1ncn(C(C)(C)C)n1)c1nc(C)cs1` the “% Inhibition” value was -12% and the Z score was 1.59.
In the case of `O=C(NCc1ccco1)Nc1nccs1`, the “% Inhibition” value is reported as 1% and the Z score is reported as -0.2.
`C=CCNC(=O)NC(=O)CN(C(C)C)C1CCC1` was tested, and the “% Inhibition” value was -18% and the Z score was 2.43.
With `O=C(CCc1ccccc1Cl)Nc1cccc(S(=O)(=O)N2CCOCC2)c1` the “% Inhibition” value was -1% and the Z score was 0.15.
For `COc1ccc(CNC(=O)[C@@H](C)C2CCOCC2)c(C)c1`, the “% Inhibition” value was -3% and the Z score was 0.5.
`CC(CCC1CCCC1)NC(=O)NC(C)c1nc[nH]n1` (stereo unspecified) was tested, and the “% Inhibition” value was -2% and the Z score was 0.3.
For `O=S1(=O)C[C@H]2NCCN(c3ccnc(N4CCC5(CCCC5)C4)n3)[C@H]2C1`, the “% Inhibition” value was -21% and the Z score was 1.89.
In the case of `Cc1cccnc1NC(=O)[C@H]1CCCN(C(=O)c2c(O)cc(F)cc2F)C1`, the “% Inhibition” value is reported as 2% and the Z score is reported as -0.19.
For `CCOc1ccc(CNC(=O)C2(C#N)CCCCC2)cc1Cl`, the “% Inhibition” value was -8% and the Z score was 1.21.
In the case of `C=CCNC(=O)CCN(Cc1c(C)nn(C)c1C)C(C)C`, the “% Inhibition” value is reported as -8% and the Z score is reported as 1.01.
For `CC[C@H]1CCCCN1C(=O)c1ccc(-n2nc(-c3nnc(C)o3)c(C)c2-c2ccc(F)cc2)cc1`, the “% Inhibition” value was 6% and the Z score was -0.8.
With `Cc1nn(-c2ccc(C(F)(F)F)cc2)c(C)c1[C@@H]1C=C[C@@H](NC(=O)Nc2ccccc2)C1` the “% Inhibition” value was 28% and the Z score was -3.19.
With `COCC(NC(=O)N1CCOC(c2cnn(C)c2)C1)c1ccc(C)o1` (stereo unspecified) the “% Inhibition” value was -1% and the Z score was 0.1.
`NC(=O)[C@@H]1CCCN1C(=O)NC1CCN(S(=O)(=O)c2ccccc2)CC1` was tested, and the “% Inhibition” value was -9% and the Z score was 1.63.
For `COCCCNC(=O)[C@]1(C)Cn2nc(-c3ccccc3)cc2C(=O)N1c1ccccc1C`, the “% Inhibition” value was -3% and the Z score was 0.54.
For `COc1ccc(NC(=O)c2cc(-c3ccc(F)cc3)ns2)cc1OC`, the “% Inhibition” value was 10% and the Z score was -1.56.
In the case of `O=C(NCc1ccccn1)[C@H]1CN(S(=O)(=O)c2cccnc2)CC12CCCCC2`, the “% Inhibition” value is reported as 38% and the Z score is reported as -1.27.
`COc1ccccc1CN(Cc1nc(C(=O)NCCN2CCOCC2)co1)[C@@H](C)c1ccccc1` was tested, and the “% Inhibition” value was -8% and the Z score was 1.15.
In the case of `CN([C@H]1CCCN(S(=O)(=O)C2(C)CC2)CC1)S(=O)(=O)C1(C)CC1`, the “% Inhibition” value is reported as -17% and the Z score is reported as 1.76.
With `Cc1ccccc1N1CC[C@@H](C(=O)NCc2cccc(C(F)(F)F)c2)C1=O` the “% Inhibition” value was -15% and the Z score was 1.5.
`O=c1ccc(-c2ccccc2)nn1CC#Cc1ccc(F)cc1` was tested, and the “% Inhibition” value was 5% and the Z score was -0.94.
For `COc1cc2c(cc1CN1C[C@@H]3NC(=O)CN(C)C(=O)c4ccc(C)c(c4)Oc4cccc(c4)CO[C@H]3C1)OCCCO2`, the “% Inhibition” value was -4% and the Z score was 0.81.
In the case of `COc1ccccc1NC(=O)N[C@H](C)C(=O)OC(C)C`, the “% Inhibition” value is reported as -4% and the Z score is reported as 0.39.
For `COc1ccc(-c2nc(-c3ccc4ncn(C(C)C)c4c3)no2)c(OC)c1`, the “% Inhibition” value was -14% and the Z score was 1.49.
With `CN(CCn1ccnc1)C(=O)C1CC=CC1` the “% Inhibition” value was -3% and the Z score was 0.6.
In the case of `O=C(C1CC1c1ccco1)N1CCCC(COc2ccccc2)C1` (stereo unspecified), the “% Inhibition” value is reported as -7% and the Z score is reported as 0.58.
With `CCCCCOCC(=O)NC[C@]1(CO)COCCN1` the “% Inhibition” value was -7% and the Z score was 1.36.
For `C[C@@H](O)C(=O)N1CCC2(CC1)CC(=O)N(C/C=C/c1ccccc1)C2`, the “% Inhibition” value was -7% and the Z score was 0.63.
With `CS(=O)(=O)CC1(CC(=O)NC2CCCCCCC2)CC1` the “% Inhibition” value was -7% and the Z score was 0.92.
